In PMC12136788:
Some of the results follow.

B1: chr3:9412954:9412955:+_ENSG00000134077_ENST00000452837|hu_mus|hu_hu_hu_mus_False|18_58 (ssRNA)
RNA: GGGAGUUCUACAGUCCGACGAUCGGUUGAUAUCUCUUCUUUGAUGGCUGGAUUUUCAUAAUAGUCCAAGAUAUGUGAAUCUAAAGCGCUGCUGGCAUGCUUUUUCUUACCAUCUUUCUGAUCGAUUUUGUCUCCUUGUCCACACAACAGAGGAUUGAGCAUCA
B2: chr3:101264221:101264222:+_ENSMUSG00000042035_ENSMUST00000043983|mus_mus|FALSE|FALSE (ssRNA)
RNA: GGGAGUUCUACAGUCCGACGAUCAGAUUGGCGAGUAGAUGCGGCACCUGGAGCUACGCACUAAGUUACCAAAACCAAAAACUAGGAACCUAGGAUGUUGGCAUCAUGACACCUGGGUGUGAUCAGCUAACCAGGGCUGCCGCCCAACAGAGGAUUGAGCAUCA
B3: chr4:95585729:95585730:+_ENSG00000163110_ENST00000317968|hu_hu|FALSE|FALSE (ssRNA)
RNA: GGGAGUUCUACAGUCCGACGAUCGAUUACAGGCGUGAGCCACCGCGCUCAGCCUACAAGCAAUUUUUUAAAAACUGACACCUAUUACUGAUAAAAUUCUCUGUUUAAAAUCCUAUUUACUAUUUUAAAGAUAAGUAUUAGUUUCAACAGAGGAUUGAGCAUCA
B4: chr11:23185130:23185131:+_ENSMUSG00000020290_ENSMUST00000020538|mus_mus|motif|central (ssRNA)
RNA: GGGAGUUCUACAGUCCGACGAUCGAACGGCAUUACUUCUCCAACUUGAACCUGAACAAAAUGCCUACGGCAUUUUUGAGCGGUUUUAAUAAAUGUGUCACAAGCCAUAUCCUGGACUCCAUCAUGGGUCUCAUGCAUGAAUUCCAACAGAGGAUUGAGCAUCA
B5: chr16:94690093:94690094:+_ENSMUSG00000040785_ENSMUST00000117648|mus_hu|mus_mus_mus_hu_True|8_18 (ssRNA)
RNA: GGGAGUUCUACAGUCCGACGAUCGGGCUGGGAUGACGGACACACAGCCUCGAUUCCAGGGGGAAAAAGUCUUAGUCGAUACUAAUUAAAAAGUGUUAAUGAUUUUUGAAAAUCAGAUGUAGAUUAAUUGAAUCAUAAAGCAAACAACAGAGGAUUGAGCAUCA
B6: chr2:135883765:135883766:+_ENSG00000115839_ENST00000442034|hu_hu|FALSE|FALSE (ssRNA)
RNA: GGGAGUUCUACAGUCCGACGAUCAGAAUAAACAUCAUUAUCCACAAUGAUCCCUUCGGUCAGAUGAGGCCAUGUAGUAGCUAAAUGGAGUUCACUAAUAGGAUCUUCGCAGGCACCAAAUGGUAACUUGCCAAACUCCAAGCCCAACAGAGGAUUGAGCAUCA

Biological target: T1, UNK ZnF1-3 (human, UniProt Q9C0B0 31-174)
T1 sequence: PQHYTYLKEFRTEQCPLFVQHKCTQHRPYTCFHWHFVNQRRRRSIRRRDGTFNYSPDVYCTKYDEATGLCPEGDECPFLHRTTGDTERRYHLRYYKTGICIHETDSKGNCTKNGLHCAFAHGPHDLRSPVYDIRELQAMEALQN
Assay: nsRBNS (natural sequence RNA bind-n-seq); RBNS binding buffer (assumed for nsRBNS): 25 mM Tris pH 7.5, 150 mM KCl, 3 mM MgCl2, 0.01% Triton X-100, 500 ug/ml BSA, 20 U/ml SUPERase-In, 4 C; UNK is unkempt and MSI1 is Musashi-1; names of the RNAs are library labels; protein concentration not given here; high values mean tight binding

Binder | binding signal
B1 | 0.388 enrichment R
B2 | 1.18 enrichment R
B3 | 0.896 enrichment R
B4 | 0.919 enrichment R
B5 | 0.759 enrichment R
B6 | 1.08 enrichment R
